# This is one part of the list.
# B1: CrataBL (Crataeva tapia), C0HJA4 (protein)
# chain: AILTGVPYYILPSTSRAGFSPDNLRKNTSQLSCPLDLITQLRFPRRIGVPVIFTPQNSSLKVVPLSHNLNIHTCSDLWFCPESKIWTVKSSLTHGGSVVTTGGTFRSLGSWFRIERHGDSYKLVHCPRGSTPCRDVGIETVGGGGRRYLAPRDRPLAVRFTRASG
# Tests used:
# Experiment in all cases: glycan array binding signal (z-score within array); higher = stronger binding
# Conditions in all cases: glycan notation: IUPAC condensed, linker removed
# [1] = biological target: Neu5Ac(a2-6)GlcNAc(b1-4)GlcNAc
# Outline: (§1)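 The binding signal is a Z-score computed within each array and averaged over linkers. Arrays of the same protein sequence at different concentrations or buffers were also averaged together. Data originate from 3228 arrays in the Consortium for Functional Glycomics database, kept only where the protein sequence was available.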
# [2] = biological target: Neu5Ac(a2-6)GlcNAc(b1-4)GlcNAc(b1-4)GlcNAc
# Outline: as §1
# Neu5Ac(a2-8)Neu5Ac = biological target: Neu5Ac(a2-8)Neu5Ac
# Outline: as §1
# [3] = biological target: Neu5Ac(a2-8)Neu5Ac(a2-3)Gal(b1-3)GalNAc(b1-4)[Neu5Ac(a2-3)]Gal(b1-4)Glc
# Outline: as §1
# [4] = biological target: Neu5Ac(a2-8)Neu5Ac(a2-3)Gal(b1-3)GalNAc(b1-4)[Neu5Ac(a2-8)Neu5Ac(a2-3)]Gal(b1-4)Glc
# Outline: as §1
# [5] = biological target: Neu5Ac(a2-8)Neu5Ac(a2-3)Gal(b1-4)Glc
# Outline: as §1
# [6] = biological target: Neu5Ac(a2-8)Neu5Ac(a2-3)Gal(b1-4)GlcNAc
# Outline: as §1
# [7] = biological target: Neu5Ac(a2-8)Neu5Ac(a2-3)[Gal(b1-3)GalNAc(b1-4)]Gal(b1-4)Glc
# Outline: as §1
# [8] = biological target: Neu5Ac(a2-8)Neu5Ac(a2-3)[GalNAc(b1-4)]Gal(b1-4)Glc
# Outline: as §1
# [9] = biological target: Neu5Ac(a2-8)Neu5Ac(a2-8)Neu5Ac
# Outline: as §1
# [10] = biological target: Neu5Ac(a2-8)Neu5Ac(a2-8)Neu5Ac(a2-3)Gal(b1-4)Glc
# Outline: as §1
# [11] = biological target: Neu5Ac(a2-8)Neu5Ac(a2-8)Neu5Ac(a2-3)[Gal(b1-3)GalNAc(b1-4)]Gal(b1-4)Glc
# Outline: as §1
# [12] = biological target: Neu5Ac(a2-8)Neu5Ac(a2-8)Neu5Ac(a2-3)[GalNAc(b1-4)]Gal(b1-4)Glc
# Outline: as §1
# [13] = biological target: Neu5Ac(a2-8)Neu5Ac(a2-8)Neu5Ac(a2-8)Neu5Ac(a2-3)[GalNAc(b1-4)]Gal(b1-4)Glc
# Outline: as §1
# [14] = biological target: Neu5Ac(a2-8)Neu5Gc(a2-3)Gal(b1-4)GlcNAc
# Outline: as §1
# [15] = biological target: Neu5Ac(b2-6)Gal(b1-4)GlcNAc
# Outline: as §1
# Neu5Ac(b2-6)GalNAc = biological target: Neu5Ac(b2-6)GalNAc
# Outline: as §1
# [16] = biological target: Neu5Ac9Ac(a2-3)Gal(b1-3)GlcNAc
# Outline: as §1
# [17] = biological target: Neu5Ac9Ac(a2-3)Gal(b1-4)GlcNAc
# Outline: as §1
# [18] = biological target: Neu5Ac9Ac(a2-6)Gal(b1-4)GlcNAc
# Outline: as §1
# [19] = biological target: Neu5Gc(a2-3)Gal(b1-3)GlcNAc
# Outline: as §1
# [20] = biological target: Neu5Gc(a2-3)Gal(b1-3)[Fuc(a1-4)]GlcNAc
# Outline: as §1
# Neu5Gc(a2-3)Gal(b1-4)Glc = biological target: Neu5Gc(a2-3)Gal(b1-4)Glc
# Outline: as §1
# [21] = biological target: Neu5Gc(a2-3)Gal(b1-4)GlcNAc
# Outline: as §1
# [22] = biological target: Neu5Gc(a2-3)Gal(b1-4)GlcNAc(b1-3)Gal(b1-4)GlcNAc(b1-2)Man(a1-3)[Neu5Gc(a2-3)Gal(b1-4)GlcNAc(b1-3)Gal(b1-4)GlcNAc(b1-2)Man(a1-6)]Man(b1-4)GlcNAc(b1-4)GlcNAc
# Outline: as §1
# [23] = biological target: Neu5Gc(a2-3)Gal(b1-4)[Fuc(a1-3)]GlcNAc
# Outline: as §1
# [24] = biological target: Neu5Gc(a2-6)Gal(b1-4)GlcNAc
# Outline: as §1
# Neu5Gc(a2-6)GalNAc = biological target: Neu5Gc(a2-6)GalNAc
# Outline: as §1
# [25] = biological target: Neu5Gc(a2-8)Neu5Ac(a2-3)Gal(b1-4)GlcNAc
# Outline: as §1
# [26] = biological target: Neu5Gc(a2-8)Neu5Gc(a2-3)Gal(b1-4)GlcNAc
# Outline: as §1
# [27] = biological target: Neu5Gc(a2-8)Neu5Gc(a2-3)Gal(b1-4)GlcNAc(b1-3)Gal(b1-4)GlcNAc
# Outline: as §1
# [28] = biological target: Neu5Gc(a2-8)Neu5Gc(a2-6)Gal(b1-4)GlcNAc
# Outline: as §1
# [29] = biological target: Neu5Gc(b2-6)Gal(b1-4)GlcNAc
# Outline: as §1
binder,measurement,setting,value
B1,glycan array binding signal (z-score),[1],-0.099
same,glycan array binding signal (z-score),[2],-0.16
same,glycan array binding signal (z-score),Neu5Ac(a2-8)Neu5Ac,0.429
same,glycan array binding signal (z-score),[3],0.534
same,glycan array binding signal (z-score),[4],-0.21
same,glycan array binding signal (z-score),[5],-0.492
same,glycan array binding signal (z-score),[6],-0.22
same,glycan array binding signal (z-score),[7],-0.347
same,glycan array binding signal (z-score),[8],0.475
same,glycan array binding signal (z-score),[9],0.467
same,glycan array binding signal (z-score),[10],0.189
same,glycan array binding signal (z-score),[11],0.072
same,glycan array binding signal (z-score),[12],0.491
same,glycan array binding signal (z-score),[13],0.13
same,glycan array binding signal (z-score),[14],-0.462
same,glycan array binding signal (z-score),[15],-0.387
same,glycan array binding signal (z-score),Neu5Ac(b2-6)GalNAc,-0.456
same,glycan array binding signal (z-score),[16],-0.382
same,glycan array binding signal (z-score),[17],-0.414
same,glycan array binding signal (z-score),[18],-0.52
same,glycan array binding signal (z-score),[19],-0.462
same,glycan array binding signal (z-score),[20],-0.434
same,glycan array binding signal (z-score),Neu5Gc(a2-3)Gal(b1-4)Glc,-0.11
same,glycan array binding signal (z-score),[21],-0.39
same,glycan array binding signal (z-score),[22],-0.519
same,glycan array binding signal (z-score),[23],-0.303
same,glycan array binding signal (z-score),[24],0.096
same,glycan array binding signal (z-score),Neu5Gc(a2-6)GalNAc,-0.202
same,glycan array binding signal (z-score),[25],-0.358
same,glycan array binding signal (z-score),[26],-0.428
same,glycan array binding signal (z-score),[27],-0.375
same,glycan array binding signal (z-score),[28],-0.193
same,glycan array binding signal (z-score),[29],0.152
